According to paper PMC8441365:
No constants are given. Whether binding was seen depends on the method and setting. Binding seen in cells or lysates may run through a third protein. Some binding calls cover weakened binding; strength is not graded here. For some assays here: Sequences can lack the tags named with a protein.

The chains behind the UniProt entries cited, without tags or fusion partners.
UniProt Q969U6: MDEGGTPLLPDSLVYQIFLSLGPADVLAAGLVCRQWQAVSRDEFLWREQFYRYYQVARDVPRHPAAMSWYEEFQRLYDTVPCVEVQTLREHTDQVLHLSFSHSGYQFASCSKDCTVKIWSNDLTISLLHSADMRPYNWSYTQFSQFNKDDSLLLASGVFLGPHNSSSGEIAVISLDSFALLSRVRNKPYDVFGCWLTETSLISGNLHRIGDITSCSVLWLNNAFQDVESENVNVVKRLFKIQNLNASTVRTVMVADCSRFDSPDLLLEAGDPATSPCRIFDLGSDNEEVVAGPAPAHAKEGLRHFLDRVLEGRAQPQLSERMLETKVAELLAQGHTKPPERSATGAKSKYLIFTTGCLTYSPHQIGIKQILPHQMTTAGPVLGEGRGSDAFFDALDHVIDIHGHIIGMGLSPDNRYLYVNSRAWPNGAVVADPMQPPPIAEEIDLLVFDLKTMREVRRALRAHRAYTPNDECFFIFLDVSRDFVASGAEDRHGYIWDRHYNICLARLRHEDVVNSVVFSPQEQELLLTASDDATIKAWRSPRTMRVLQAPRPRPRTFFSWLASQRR
UniProt Q969H0: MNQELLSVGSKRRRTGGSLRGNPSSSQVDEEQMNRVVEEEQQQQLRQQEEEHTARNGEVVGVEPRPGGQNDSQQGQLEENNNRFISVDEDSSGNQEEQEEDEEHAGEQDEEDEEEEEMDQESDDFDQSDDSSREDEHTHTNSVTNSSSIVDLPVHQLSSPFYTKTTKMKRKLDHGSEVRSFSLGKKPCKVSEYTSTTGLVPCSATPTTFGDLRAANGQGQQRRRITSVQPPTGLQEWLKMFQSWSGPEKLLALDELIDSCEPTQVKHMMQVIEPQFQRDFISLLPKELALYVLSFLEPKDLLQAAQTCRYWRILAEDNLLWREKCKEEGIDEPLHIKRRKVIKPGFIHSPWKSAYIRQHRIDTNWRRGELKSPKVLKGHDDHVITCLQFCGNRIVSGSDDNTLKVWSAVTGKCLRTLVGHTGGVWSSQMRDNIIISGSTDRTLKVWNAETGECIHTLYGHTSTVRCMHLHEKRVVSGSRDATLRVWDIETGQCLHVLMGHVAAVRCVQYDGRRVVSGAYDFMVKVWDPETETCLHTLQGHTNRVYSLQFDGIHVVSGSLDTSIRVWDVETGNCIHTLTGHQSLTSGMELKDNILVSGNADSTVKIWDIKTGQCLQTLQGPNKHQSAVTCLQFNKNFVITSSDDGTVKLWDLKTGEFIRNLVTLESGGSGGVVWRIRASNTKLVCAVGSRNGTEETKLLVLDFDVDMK

Legend:
[1] = biological target: HaloTag(HT)-tagged Fbxw5 (human) (UniProt Q969U6); assay: FRET or BRET; NanoBRET in living HeLa cells; NanoLuc fusion as donor, HaloTag fusion with 618 ligand as acceptor; corrected NanoBRET ratio
[2] = biological target: endogenous Fbxw5 (human (endogenous in RPE-1)) (UniProt Q969U6); assay: co-IP; endogenous proteins; anti-Fbxw5 IgG or unspecific rabbit IgG with Protein A agarose, lysis buffer with 0.4% NP-40; Fig 2D: RPE-1 cells asynchronous or arrested 24 h with 2 mM HU, 10 µM RO-3306 or 75 ng/ml nocodazole; Fig EV1D: cell line not stated
Flag-Fbxw5 (human) [3] = biological target: Flag-Fbxw5 (human) (UniProt Q969U6); assay: co-IP; exogenously expressed Flag-Fbxw5 precipitated with anti-Flag antibodies, eluted with FLAG-peptide, TCA precipitated; endogenous partners detected by Western blot (Fig EV1C)
[4] = biological target: Fbxw7 (tagged, Hek293T) (human) (UniProt Q969H0); assay: co-IP; tagged proteins expressed in Hek293T cells, extracts subjected to anti-Flag IP (FLAG-agarose, 3 h; lysis buffer 20 mM HEPES pH 7.3, 110 mM K-acetate, 0.2% NP-40), Western blot
Flag-Fbxw5 (human) [5] = biological target: Flag-Fbxw5 (human) (UniProt Q969U6); assay: as above

B1: MCAK fused to NanoLuc luciferase (protein, UniProt Q99661 1-725)
chain: MAMDSSLQARLFPGLAIKIQRSNGLIHSANVRTVNLEKSCVSVEWAEGGATKGKEIDFDDVAAINPELLQLLPLHPKDNLPLQENVTIQKQKRRSVNSKIPAPKESLRSRSTRMSTVSELRITAQENDMEVELPAAANSRKQFSVPPAPTRPSCPAVAEIPLRMVSEEMEEQVHSIRGSSSANPVNSVRRKSCLVKEVEKMKNKREEKKAQNSEMRMKRAQEYDSSFPNWEFARMIKEFRATLECHPLTMTDPIEEHRICVCVRKRPLNKQELAKKEIDVISIPSKCLLLVHEPKLKVDLTKYLENQAFCFDFAFDETASNEVVYRFTARPLVQTIFEGGKATCFAYGQTGSGKTHTMGGDLSGKAQNASKGIYAMASRDVFLLKNQPCYRKLGLEVYVTFFEIYNGKLFDLLNKKAKLRVLEDGKQQVQVVGLQEHLVNSADDVIKMIDMGSACRTSGQTFANSNSSRSHACFQIILRAKGRMHGKFSLVDLAGNERGADTSSADRQTRMEGAEINKSLLALKECIRALGQNKAHTPFRESKLTQVLRDSFIGENSRTCMIATISPGISSCEYTLNTLRYADRVKELSPHSGPSGEQLIQMETEEMEACSNGALIPGNLSKEEEELSSQMSSFNEAMTQIRELEEKAMEELKEIIQQGPDWLELSEMTEQPDYDLETFVNKAESALAQQAKHFSALRDVIKALRLAMQLEEQASRQISSKKRPQ
binding [1]: binds

B2: endogenous MCAK (protein, UniProt Q99661 1-725)
chain: MAMDSSLQARLFPGLAIKIQRSNGLIHSANVRTVNLEKSCVSVEWAEGGATKGKEIDFDDVAAINPELLQLLPLHPKDNLPLQENVTIQKQKRRSVNSKIPAPKESLRSRSTRMSTVSELRITAQENDMEVELPAAANSRKQFSVPPAPTRPSCPAVAEIPLRMVSEEMEEQVHSIRGSSSANPVNSVRRKSCLVKEVEKMKNKREEKKAQNSEMRMKRAQEYDSSFPNWEFARMIKEFRATLECHPLTMTDPIEEHRICVCVRKRPLNKQELAKKEIDVISIPSKCLLLVHEPKLKVDLTKYLENQAFCFDFAFDETASNEVVYRFTARPLVQTIFEGGKATCFAYGQTGSGKTHTMGGDLSGKAQNASKGIYAMASRDVFLLKNQPCYRKLGLEVYVTFFEIYNGKLFDLLNKKAKLRVLEDGKQQVQVVGLQEHLVNSADDVIKMIDMGSACRTSGQTFANSNSSRSHACFQIILRAKGRMHGKFSLVDLAGNERGADTSSADRQTRMEGAEINKSLLALKECIRALGQNKAHTPFRESKLTQVLRDSFIGENSRTCMIATISPGISSCEYTLNTLRYADRVKELSPHSGPSGEQLIQMETEEMEACSNGALIPGNLSKEEEELSSQMSSFNEAMTQIRELEEKAMEELKEIIQQGPDWLELSEMTEQPDYDLETFVNKAESALAQQAKHFSALRDVIKALRLAMQLEEQASRQISSKKRPQ
binding [2]: binds

B3: endogenous CSRP2 (protein, UniProt Q16527 1-193)
chain: MPVWGGGNKCGACGRTVYHAEEVQCDGRSFHRCCFLCMVCRKNLDSTTVAIHDEEIYCKSCYGKKYGPKGYGYGQGAGTLNMDRGERLGIKPESVQPHRPTTNPNTSKFAQKYGGAEKCSRCGDSVYAAEKIIGAGKPWHKNCFRCAKCGKSLESTTLTEKEGEIYCKGCYAKNFGPKGFGYGQGAGALVHAQ
binding (Flag-Fbxw5 (human) [3]): binds

B4: HA-MCAK (protein, UniProt Q99661 1-725)
chain: MAMDSSLQARLFPGLAIKIQRSNGLIHSANVRTVNLEKSCVSVEWAEGGATKGKEIDFDDVAAINPELLQLLPLHPKDNLPLQENVTIQKQKRRSVNSKIPAPKESLRSRSTRMSTVSELRITAQENDMEVELPAAANSRKQFSVPPAPTRPSCPAVAEIPLRMVSEEMEEQVHSIRGSSSANPVNSVRRKSCLVKEVEKMKNKREEKKAQNSEMRMKRAQEYDSSFPNWEFARMIKEFRATLECHPLTMTDPIEEHRICVCVRKRPLNKQELAKKEIDVISIPSKCLLLVHEPKLKVDLTKYLENQAFCFDFAFDETASNEVVYRFTARPLVQTIFEGGKATCFAYGQTGSGKTHTMGGDLSGKAQNASKGIYAMASRDVFLLKNQPCYRKLGLEVYVTFFEIYNGKLFDLLNKKAKLRVLEDGKQQVQVVGLQEHLVNSADDVIKMIDMGSACRTSGQTFANSNSSRSHACFQIILRAKGRMHGKFSLVDLAGNERGADTSSADRQTRMEGAEINKSLLALKECIRALGQNKAHTPFRESKLTQVLRDSFIGENSRTCMIATISPGISSCEYTLNTLRYADRVKELSPHSGPSGEQLIQMETEEMEACSNGALIPGNLSKEEEELSSQMSSFNEAMTQIRELEEKAMEELKEIIQQGPDWLELSEMTEQPDYDLETFVNKAESALAQQAKHFSALRDVIKALRLAMQLEEQASRQISSKKRPQ
binding [4]: no binding | binding (Flag-Fbxw5 (human) [5]): binds
